Experimental data: PubChem BioAssay AID485294 (National Center for Advancing Translational Sciences (NCATS), 2010)
Out of some 370,000 compounds screened, about 150 (0.041%) were called active. The shares of active, inactive and inconclusive entries below differ from those in the screen. Calls follow the shape of the dose curve; as a rule, active = well fitted inhibition curve with a large enough effect; inconclusive = small, poorly fitted or top-dose-only effect; inactive = flat fitted curve, though single readings scatter. Potencies of inconclusive entries are left out as doubtful fits.

Target: Beta-lactamase (Escherichia coli (strain K12)) (UniProt P00811)
Assay: qHTS Inhibitors of AmpC Beta-Lactamase (assay with detergent); also: nearly all actives have a fitted effect of over 25% in size;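 as to activity change, negative = inhibition: 0% = no-compound wells and -100% = no-enzyme wells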
Settings: AmpC hydrolysis of nitrocefin, absorbance 480 nm, 0.01% Triton; activity change, negative = inhibition: at 114 µM (top of the series)
Method in brief: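 AmpC (5.3 nM in the dispensed reagent) in 20 mM phosphate pH 7.0 with 0.01% (detergent screen) or 0.0001% Triton X-100 was preincubated with compounds for 15 min at room temperature. Nitrocefin was then added from an 800 uM solution, and hydrolysis was followed at 480 nm.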
Potency is read from the fitted curve at half-maximal effect; tags tell the direction and shape of the fitted curve.

Chain of UniProt P00811 (P00811 whole entry, looked up): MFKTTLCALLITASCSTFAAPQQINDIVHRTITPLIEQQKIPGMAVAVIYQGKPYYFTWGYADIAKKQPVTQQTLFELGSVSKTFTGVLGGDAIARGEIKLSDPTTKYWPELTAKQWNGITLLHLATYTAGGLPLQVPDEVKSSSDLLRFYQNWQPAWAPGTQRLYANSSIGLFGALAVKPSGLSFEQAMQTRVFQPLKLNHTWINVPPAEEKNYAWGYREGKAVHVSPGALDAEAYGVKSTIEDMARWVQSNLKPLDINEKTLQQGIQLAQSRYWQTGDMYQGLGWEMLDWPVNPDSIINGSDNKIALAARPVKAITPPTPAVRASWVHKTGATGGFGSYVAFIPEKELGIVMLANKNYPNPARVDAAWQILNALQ

| SMILES | activity change, negative = inhibition | Potency |
| --- | --- | --- |
| CCCNC(=O)c1nn2c(C(F)(F)F)cc(-c3ccccc3)nc2c1Cl | inactive: 5.81% | – |
| CCc1nc(N2CCOCC2)c(C#N)c2c1CCCC2 | – | inconclusive [inhibitor, full curve, poor fit] |
| O=C(CCc1ccc(S(=O)(=O)NCCc2ccccc2)cc1)N1CCN(Cc2ccc3c(c2)OCO3)CC1 | – | inconclusive [inhibitor, full curve, poor fit] |
| CCOC(=O)c1c(-c2ccccc2)csc1NC(=O)c1nc(SCC)ncc1Cl | inactive: 11.5% | – |
| CCCCn1nc(C(=O)Nc2ccccc2N2CCCC2)c2ccccc2c1=O | – | inconclusive [inhibitor, full curve, poor fit] |
| Cn1c(=O)c2c(nc(SCc3nc(N)nc(N4CCCCC4)n3)n2C)n(C)c1=O | – | inconclusive [inhibitor, full curve, poor fit] |
| O=C(NCc1ccco1)c1cc(S(=O)(=O)N2CCOCC2)c(Cl)cc1Cl | – | inconclusive [inhibitor, full curve] |
| C#CCn1c(=NC(=O)c2cccs2)sc2cccc(OCC)c21 | – | inconclusive [inhibitor, full curve] |
| N#Cc1ccccc1NC(=O)CN1C(=O)NC(Cc2c[nH]c3ccccc23)C1=O (stereo not drawn) | – | inconclusive [inhibitor, full curve, poor fit] |
| N#Cc1ccc(CSc2nnc(NC(=O)C3CCCO3)s2)cc1 (stereo not drawn) | – | inconclusive [inhibitor, full curve, poor fit] |
| Cc1c(Cl)c([N+](=O)[O-])nn1CC(=O)N1CCN(C23CC4CC(CC(C4)C2)C3)CC1 | inactive: -13% | – |
| Cc1[nH]nc(SCC(=O)NCc2ccc(F)cc2)c1[N+](=O)[O-] | – | inconclusive [inhibitor, partial curve, poor fit] |
| c1ccc(N2CCN(Cc3ccsc3)CC2)nc1 | – | inconclusive [inhibitor, partial curve, poor fit] |
| CCc1nnc(NC(=O)C2CCCN(c3nc(C)cc(C)n3)C2)s1 (stereo not drawn) | – | inconclusive [inhibitor, partial curve, poor fit] |
| CCOC(=O)N1CCC(NC2CCCCCCC2)CC1 | inactive: 0.349% | – |
| CCOc1ccc(S(=O)(=O)Nc2ccc(C(=O)N/N=C(\C)c3ccc(-n4ccnc4)cc3)cc2)cc1 | – | inconclusive [inhibitor, full curve, poor fit] |
| CCc1ccc(NC(=O)CN2C(=O)CC(c3ccccc3)Sc3ccccc32)cc1 (stereo not drawn) | inactive: -1.4% | – |
| CCCCOC(=O)c1ccc(NC(=O)c2c(Cl)ccc(Cl)c2OC)cc1 | inactive: -9.4% | – |
